Measurements: the supplement of paper PMC12230231
± gives the standard deviation of the averaged measurements. Restriction of a single-cycle SIVsab GFP reporter by TRIM5α v1-loop variants in CRFK cells. Human variants: read share among cells still uninfected after two challenges over input, higher = gained restriction. Rhesus variants: share among infected cells over input, higher = lost restriction. Reporter dose not given per row. No active / inactive call per row; the paper calls a change when both replicates lie above its controls (mean + 2 SD of stop or wild-type variants, or the top frameshift score). Residues outside the varied loop are taken from Swiss-Prot. The paper reads the human single-substitution scores as noise; they and the rhesus combinations repeat poorly (rank correlation 0.3 to 0.4), indel scores repeat only for the top variants, rhesus substitutions well (0.9).

test system: SIVsab (simian immunodeficiency virus of sabaeus monkeys), single-cycle GFP reporter, in CRFK cells; assay: enrichment among uninfected cells over input (fold); higher = stronger restriction; conditions: library: human / rhesus combinations
Experimental: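 Pools of CRFK cells expressing variants of the TRIM5α v1 loop were challenged with the single-cycle reporter, sorted by GFP and sequenced; mean of two replicates.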

Sequence | enrichment
MASGILVNVKEEVTCPICLELLTQPLSLDCGHSFCQACLTANHKKSMLDKGESSCPVCRISYQPENIRPNRHVANIVEKLREVKLSPEGQKVDHCARHGEKLLLFCQEDGKVICWLCERSQEHRGHHTFLTEEVAREYQVKLQAALEMLRQKQQEAEELEADIREEKASWKTQIQYDKTNVLADFEQLRDILDWEESNELQNLEKEEEDILKSLTNSETEMVQQTQSLRELISDLEHRLQGSVMELLQGVDGVIKRTENVTLKKPETFPKNQRRVFRAPDLKGMLEVFRELTDVRRYWVDVTVAPNNISCAVISEDKRQVSSPKPQIIYQARGTLFTFQSFVNFNYCTGILGSQSITSGKHYWEVDVSKKTAWILGVCAGFQPDAMCNIEKNENYQPKYGYWVIGLEEGVKCSAFQDSSFHTPSVPFIVPLSVIICPDRVGVFLDYEACTVSFFNITNHGFLIYKFSHCSFSQPVFPYLNPRKCGVPMTLCSPSS [human TRIM5α, 330-340 = QARGTLFTFQSFV] | 0.0693 ± 0.028
MASGILVNVKEEVTCPICLELLTQPLSLDCGHSFCQACLTANHKKSMLDKGESSCPVCRISYQPENIRPNRHVANIVEKLREVKLSPEGQKVDHCARHGEKLLLFCQEDGKVICWLCERSQEHRGHHTFLTEEVAREYQVKLQAALEMLRQKQQEAEELEADIREEKASWKTQIQYDKTNVLADFEQLRDILDWEESNELQNLEKEEEDILKSLTNSETEMVQQTQSLRELISDLEHRLQGSVMELLQGVDGVIKRTENVTLKKPETFPKNQRRVFRAPDLKGMLEVFRELTDVRRYWVDVTVAPNNISCAVISEDKRQVSSPKPQIIYGARGTRYTFPTLVNFNYCTGILGSQSITSGKHYWEVDVSKKTAWILGVCAGFQPDAMCNIEKNENYQPKYGYWVIGLEEGVKCSAFQDSSFHTPSVPFIVPLSVIICPDRVGVFLDYEACTVSFFNITNHGFLIYKFSHCSFSQPVFPYLNPRKCGVPMTLCSPSS [human TRIM5α, 330-340 = GARGTRYTFPTLV] | 0.0956 ± 0.014
MASGILVNVKEEVTCPICLELLTQPLSLDCGHSFCQACLTANHKKSMLDKGESSCPVCRISYQPENIRPNRHVANIVEKLREVKLSPEGQKVDHCARHGEKLLLFCQEDGKVICWLCERSQEHRGHHTFLTEEVAREYQVKLQAALEMLRQKQQEAEELEADIREEKASWKTQIQYDKTNVLADFEQLRDILDWEESNELQNLEKEEEDILKSLTNSETEMVQQTQSLRELISDLEHRLQGSVMELLQGVDGVIKRTENVTLKKPETFPKNQRRVFRAPDLKGMLEVFRELTDVRRYWVDVTVAPNNISCAVISEDKRQVSSPKPQIIYQARGTLFTFQSLVNFNYCTGILGSQSITSGKHYWEVDVSKKTAWILGVCAGFQPDAMCNIEKNENYQPKYGYWVIGLEEGVKCSAFQDSSFHTPSVPFIVPLSVIICPDRVGVFLDYEACTVSFFNITNHGFLIYKFSHCSFSQPVFPYLNPRKCGVPMTLCSPSS [human TRIM5α, 330-340 = QARGTLFTFQSLV] | 0.098 ± 0.022
MASGILVNVKEEVTCPICLELLTQPLSLDCGHSFCQACLTANHKKSMLDKGESSCPVCRISYQPENIRPNRHVANIVEKLREVKLSPEGQKVDHCARHGEKLLLFCQEDGKVICWLCERSQEHRGHHTFLTEEVAREYQVKLQAALEMLRQKQQEAEELEADIREEKASWKTQIQYDKTNVLADFEQLRDILDWEESNELQNLEKEEEDILKSLTNSETEMVQQTQSLRELISDLEHRLQGSVMELLQGVDGVIKRTENVTLKKPETFPKNQRRVFRAPDLKGMLEVFRELTDVRRYWVDVTVAPNNISCAVISEDKRQVSSPKPQIIYGARGTRYTFQTFVNFNYCTGILGSQSITSGKHYWEVDVSKKTAWILGVCAGFQPDAMCNIEKNENYQPKYGYWVIGLEEGVKCSAFQDSSFHTPSVPFIVPLSVIICPDRVGVFLDYEACTVSFFNITNHGFLIYKFSHCSFSQPVFPYLNPRKCGVPMTLCSPSS [human TRIM5α, 330-340 = GARGTRYTFQTFV] | 0.143 ± 0.11

same assay, conditions: library: insertions and deletions

Sequence | enrichment
MASGILVNVKEEVTCPICLELLTQPLSLDCGHSFCQACLTANHKKSMLDKGESSCPVCRISYQPENIRPNRHVANIVEKLREVKLSPEGQKVDHCARHGEKLLLFCQEDGKVICWLCERSQEHRGHHTFLTEEVAREYQVKLQAALEMLRQKQQEAEELEADIREEKASWKTQIQYDKTNVLADFEQLRDILDWEESNELQNLEKEEEDILKSLTNSETEMVQQTQSLRELISDLEHRLQGSVMELLQGVDGVIKRTENVTLKKPETFPKNQRRVFRAPDLKGMLEVFRELTDVRRYWVDVTVAPNNISCAVISEDKRQVSSPKPQIIYGAIIYGARGTRYQTFVNFNYCTGILGSQSITSGKHYWEVDVSKKTAWILGVCAGFQPDAMCNIEKNENYQPKYGYWVIGLEEGVKCSAFQDSSFHTPSVPFIVPLSVIICPDRVGVFLDYEACTVSFFNITNHGFLIYKFSHCSFSQPVFPYLNPRKCGVPMTLCSPSS [human TRIM5α, 5-codon duplication at 327] | 0.787 ± 0.71
MASGILVNVKEEVTCPICLELLTQPLSLDCGHSFCQACLTANHKKSMLDKGESSCPVCRISYQPENIRPNRHVANIVEKLREVKLSPEGQKVDHCARHGEKLLLFCQEDGKVICWLCERSQEHRGHHTFLTEEVAREYQVKLQAALEMLRQKQQEAEELEADIREEKASWKTQIQYDKTNVLADFEQLRDILDWEESNELQNLEKEEEDILKSLTNSETEMVQQTQSLRELISDLEHRLQGSVMELLQGVDGVIKRTENVTLKKPETFPKNQRRVFRAPDLKGMLEVFRELTDVRRYWVDVTVAPNNISCAVISEDKRQVSSPKPQIIGTRYQTFVNFNYCTGILGSQSITSGKHYWEVDVSKKTAWILGVCAGFQPDAMCNIEKNENYQPKYGYWVIGLEEGVKCSAFQDSSFHTPSVPFIVPLSVIICPDRVGVFLDYEACTVSFFNITNHGFLIYKFSHCSFSQPVFPYLNPRKCGVPMTLCSPSS [human TRIM5α, 4-codon deletion at 329] | 0.42172 ± 0.00014
MASGILVNVKEEVTCPICLELLTQPLSLDCGHSFCQACLTANHKKSMLDKGESSCPVCRISYQPENIRPNRHVANIVEKLREVKLSPEGQKVDHCARHGEKLLLFCQEDGKVICWLCERSQEHRGHHTFLTEEVAREYQVKLQAALEMLRQKQQEAEELEADIREEKASWKTQIQYDKTNVLADFEQLRDILDWEESNELQNLEKEEEDILKSLTNSETEMVQQTQSLRELISDLEHRLQGSVMELLQGVDGVIKRTENVTLKKPETFPKNQRRVFRAPDLKGMLEVFRELTDVRRYWVDVTVAPNNISCAVISEDKRQVSSPKPQIIYGARGTRYQTFVNFNYCNYCTGILGSQSITSGKHYWEVDVSKKTAWILGVCAGFQPDAMCNIEKNENYQPKYGYWVIGLEEGVKCSAFQDSSFHTPSVPFIVPLSVIICPDRVGVFLDYEACTVSFFNITNHGFLIYKFSHCSFSQPVFPYLNPRKCGVPMTLCSPSS [human TRIM5α, 3-codon duplication at 343] | 0.222 ± 0.16
MASGILVNVKEEVTCPICLELLTQPLSLDCGHSFCQACLTANHKKSMLDKGESSCPVCRISYQPENIRPNRHVANIVEKLREVKLSPEGQKVDHCARHGEKLLLFCQEDGKVICWLCERSQEHRGHHTFLTEEVAREYQVKLQAALEMLRQKQQEAEELEADIREEKASWKTQIQYDKTNVLADFEQLRDILDWEESNELQNLEKEEEDILKSLTNSETEMVQQTQSLRELISDLEHRLQGSVMELLQGVDGVIKRTENVTLKKPETFPKNQRRVFRAPDLKGMLEVFRELTDVRRYWVDVTVAPNNISCAVISEDKRQVSSPKPQIIYGARGTRRGTRYQTFVNFNYCTGILGSQSITSGKHYWEVDVSKKTAWILGVCAGFQPDAMCNIEKNENYQPKYGYWVIGLEEGVKCSAFQDSSFHTPSVPFIVPLSVIICPDRVGVFLDYEACTVSFFNITNHGFLIYKFSHCSFSQPVFPYLNPRKCGVPMTLCSPSS [human TRIM5α, 4-codon duplication at 332] | 6.06 ± 1.1
